Source: PubChem BioAssay AID1458 (National Center for Advancing Translational Sciences (NCATS), 2008)
The whole screen tested about 210,000 compounds, of which about 5,900 (2.8%) were called active. Inconclusive results, whose numbers are uncertain, are shown with a selection of clear calls. The call rests on the fitted dose curve; in most records, active means well fitted activation curve with a large enough effect; inconclusive means small, poorly fitted or top-dose-only effect; inactive means no such curve, though single readings can be large or run the other way. Potencies beside an inconclusive call are fits to weak or partial responses and may not hold up.

experiment: qHTS Assay for Enhancers of SMN2 Splice Variant Expression; details: HEK293 SMN2-luciferase splicing reporter, luminescence, 30-36 h; activity change, positive = activation: at 46.1 µM (top of the series); further: nearly all actives have a fitted effect of over 55% in size; on activity change, positive = activation: % of control where 0% means no effect
Summary of the method: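 HEK293 cells carry an SMN2 minigene-luciferase reporter in which exon 7 inclusion puts luciferase in frame. Cells were seeded at 2000 cells/well, attached for 10-12 hours, then exposed to compounds for 30-36 hours at 37C before ONE-Glo luminescence.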
Potency means the concentration at half of the fitted maximal effect; tags describe the fitted curve by direction and shape.

| Structure (SMILES) | Potency | activity change, positive = activation |
| --- | --- | --- |
| Cc1cccn2cc(CSc3ccccc3N)nc12 | inconclusive: 20 µM [activator, single point] |  |
| CS(=O)(=O)N1CCC2(CCCN(C(=O)Nc3cccc(F)c3)C2)CC1 |  | inactive: -23.5% |
| CCCn1nnnc1NCc1ccccc1OCc1cccs1 | inconclusive: 0.0028 µM [activator, full curve] |  |
| Cc1c(C(=O)N2CCOCC2)[nH]c2c1C(=O)CC(c1ccccc1Cl)C2 (stereo not drawn) | inconclusive: 10 µM [activator, partial curve] |  |
| O=C(Cn1cc(C(=O)c2ccco2)c2ccccc21)Nc1ccccc1 | inconclusive: 5.01 µM [activator, single point] |  |
| Cc1cc(C)cc(NC(=O)c2ccc3nc[nH]c3c2)c1 |  | inactive: -3.99% |
| CSCC[C@H](NC(=O)NCCC1=CCCCC1)C(=O)O | inconclusive: 5.62 µM [activator, single point] |  |
| O=C(Nc1cccc(Cl)c1)Nc1cccc(Cl)c1 |  | inactive: -12.3% |
| COc1ccc(-c2cc(=O)c3c(OC(C)=O)cc(OC(C)=O)cc3o2)cc1 | inconclusive: 35.5 µM [activator, single point] |  |
| O=C(c1cccc(C(=O)N2CCN(c3ccccc3F)CC2)n1)N1CCN(c2ccccc2F)CC1 | inconclusive: 4.47 µM [activator, partial curve] |  |
| CCOC(=O)c1c(NC(=O)/C=C/c2ccc(OCC)c(OC)c2)sc2c1CCC2 |  | inactive: 13.3% |
| COc1ccc(NC(=O)c2ccc3c(c2)n(C)c(=O)n3C)cc1 | inconclusive: 7.08 µM [activator, partial curve] |  |
| O=[N+]([O-])c1ccccc1N/N=C/c1c[nH]c2ccccc12 | active: 12.6 µM |  |
| CCN(CC)CC#CC(C)OCOCC#CCOC (stereo not drawn) |  | inactive: -12.1% |
| C[C@@H]1O[C@H](O[C@@H]2\C=C/C=C\C=C/C=C\C[C@H](C)OC(=O)/C=C\[C@H]3O[C@@H]3C[C@H](O)C[C@]3(O)C[C@@H](O)[C@@H](C(=O)O)[C@H](C2)O3)[C@@H](O)[C@H](N)[C@@H]1O (stereo in doubt) |  | inactive: 2.9% [at 20.6 µM] |
| CCCCNC(=O)C1CCN(Cc2ccc(OCc3ccccc3)cc2)CC1 | inconclusive: 20 µM [activator, single point] |  |
| CCOC(=O)Nc1nnc(-c2cccc(OC)c2)s1 | inconclusive: 12.6 µM [activator, partial curve, poor fit] |  |
| CCn1c(C)c(C)c2cc(C(=O)Nc3cccc(Cl)c3)ccc21 | inconclusive: 28.2 µM [activator, single point] |  |
| O=C(COc1ccc(Br)cc1)N1CCC(c2ccccc2)C1 (stereo not drawn) |  | inactive: -20.4% |
| N=c1oc2c3c4c(cc2cc1C(=O)Nc1ccccc1)CCCN4CCC3 | active: 10 µM |  |
| CC1CCCN(c2ccc(C(=O)NCc3cccs3)cn2)C1 (stereo not drawn) | active: 12.6 µM |  |
| Cc1cc(NC(=O)c2cnn3c(C(F)F)cc(-c4ccccc4)nc23)no1 |  | inactive: -3.55% |
| Cc1ccc(S(=O)(=O)NC(C)C(c2cccs2)N2CCOCC2)cc1 (stereo not drawn) | inconclusive: 0.0794 µM [activator, partial curve] |  |
| CCn1c(NCc2ccc(OC)c(OC)c2)nc2ccccc21 |  | inactive: -39.1% |
| CCN(CC)C(=O)CCCOc1ccc(Cl)cc1Cl |  | inactive: -0.747% |
| Cc1ccc(OCCn2cc(C(=O)c3ccco3)c3ccccc32)cc1C | inconclusive: 35.5 µM [activator, single point] |  |

| Structure (SMILES) | Potency | activity change, positive = activation |
| --- | --- | --- |
| COc1cccc(-c2nc3cc(C)ccc3o2)c1 | active: 11.2 µM |  |
| Cc1ccc(-c2nnn(CC(=O)N(CC3CCCO3)C(C(=O)NCC3CCCO3)c3ccc(F)cc3)n2)o1 (stereo not drawn) | inconclusive: 0.0708 µM [activator, full curve, poor fit] |  |
| Cn1c(CCNC(=O)c2ccc(F)cc2)nc2ccccc21 |  | inactive: -14.4% |
| COc1ccc(-c2nnc(SCC(=O)c3ccc(C)o3)o2)cc1 |  | inactive: -32.3% |
| O=C(O)C(Cc1c[nH]c2ccccc12)NS(=O)(=O)c1cccc2nsnc12 (stereo not drawn) | inconclusive: 0.794 µM [activator, full curve, poor fit] |  |
| CCCc1cc(=O)n2[nH]c(-c3ccc(C)cc3)cc2n1 | active: 12.6 µM |  |
| COc1cc(/C=C/C(=O)Nc2cc(S(=O)(=O)N3CCOCC3)ccc2N2CCCC2)cc(OC)c1OC | inconclusive: 7.94 µM [activator, partial curve, poor fit] |  |
| Cc1ccc(-c2cc(-c3ccccc3Cl)[nH]n2)c(O)c1 | active: 12.6 µM |  |
| CCOC(=O)Cc1nnn(CC(=O)OCC)n1 |  | inactive: -3.53% |
| O=c1cc(CSc2nnc(Nc3ccccc3)s2)nc2sccn12 | inconclusive: 1.12 µM [activator, full curve] |  |
| O=c1[nH][nH]c2cc(=O)n(-c3cccc(C(F)(F)F)c3)nc12 | inconclusive: 6.31 µM [activator, single point] |  |
| COc1ccc(-c2nc3nc(C)cc(Nc4cccc(C(F)(F)F)c4)n3n2)cc1 |  | inactive: -0.189% |
| CCc1sc(C(=O)Nc2cccc(C(C)=O)c2)cc1C | inconclusive: 35.5 µM [activator, single point] |  |
| CC1CCCCN1C(=O)COC(=O)/C=C/c1ccc2ccccc2n1 (stereo not drawn) |  | inactive: -20% |
| O=C(Nc1nnc(SCc2ccc(F)cc2)s1)c1ccco1 | inconclusive: 0.112 µM [activator, full curve] |  |
| O=C(Nc1nc2c(s1)CCCC2)c1ccc(Br)o1 | active: 11.2 µM |  |
| CC1=CC2=NC(=O)/C(=C\c3cccn3CCOc3cccc(C)c3)C(=N)N2O1 | inconclusive: 5.01 µM [activator, partial curve] |  |
| Cc1c(C(=O)NCc2ccoc2)oc2ccc3c(c12)C(=O)CC(C)(C)O3 | active: 15.8 µM |  |
| CCOCCCNCC(O)c1ccccc1 (stereo not drawn) | inconclusive: 20 µM [activator, partial curve] |  |
| Cc1cccc(Nc2nc3ccccc3s2)c1C | active: 10 µM |  |
| O=C(Cn1c(=O)n(CC(=O)NCc2ccccc2)c2ccccc21)NCc1ccccc1 | inconclusive: 15.8 µM [activator, single point] |  |
| O=c1oc2ccccc2n1CCCOc1ccccc1Cl | active: 20 µM |  |
| CCc1ccccc1NC(=O)Nc1ccc2c(c1)OCO2 |  | inactive: -0.389% |
| CCCCOC(=O)/C(=C/c1cn(C)c2ccccc12)NC(=O)c1ccc(OC)cc1 | inconclusive: 0.562 µM [activator, single point] |  |
| O=C(Cc1cccs1)NCc1ccccc1F | inconclusive: 12.6 µM [activator, single point] |  |
| c1ccc(CCSc2nccn2-c2ccccc2)cc1 | active: 20 µM |  |

| Structure (SMILES) | Potency | activity change, positive = activation |
| --- | --- | --- |
| O=C(/C=C/c1cnc2ccccc2n1)NC12CC3CC(CC(C3)C1)C2 | active: 10 µM |  |
| Cc1ccc(N2CCN(C(=O)c3cn(C)c4ccc(S(=O)(=O)N5CCCC5)cc4c3=O)CC2C)cc1 (stereo not drawn) |  | inactive: -6.96% |
| COc1ccc(N=Cc2[nH]c3ccccc3c2O)cc1 | inconclusive: 3.16 µM [activator, full curve, poor fit] |  |
| Cc1ccc(C(=O)Nn2c(O)c(C=C3N=c4ccccc4=N3)sc2=S)cc1 |  | inactive: 29.3% |
| CC(/C=N\NC(=O)Cn1c(C)nc2ccccc21)=C\c1ccccc1 |  | inactive: -77.3% |
| C/C(=N\NC(=O)c1ccco1)c1ccc(NC(=O)c2cccs2)cc1 | inconclusive: 12.6 µM [activator, single point] |  |
| COc1ccc(-n2nc(C(=O)N3CCCCC3)c3c4ccccc4n(C)c3c2=O)cc1Cl |  | inactive: 6.09% |
| COc1ccc(/C=C/c2nc(-c3ccccc3O)n[nH]2)cc1 | active: 3.98 µM |  |
| COc1ccccc1N1CCN(C(=O)c2ccc3c(c2)N(Cc2cc(C)ccc2C)C(=O)c2ccccc2S3(=O)=O)CC1 |  | inactive: -11% |
| N#Cc1cccc(NC(=O)CSc2nnc(-c3n[nH]c4ccccc34)o2)c1 | active: 12.6 µM |  |
| CC(C)(C)c1ccc(C(=O)c2c[nH]c(C(=O)O)c2)cc1 | active: 12.6 µM |  |
| COc1cc(OC)cc(C(=O)Nc2nc3ccc(S(C)(=O)=O)cc3s2)c1 | inconclusive: 12.6 µM [activator, single point] |  |
| COc1ccc(/C=N/OCC(=O)N2CCCC2)c(OC)c1 |  | inactive: 15.7% |
| CC(=O)c1ccc(S(=O)(=O)N2CCCC2)cc1 | inconclusive: 25.1 µM [activator, single point] |  |
| Cc1cc(=O)n2[nH]c(-c3ccco3)nc2n1 |  | inactive: 4.91% |
| O=c1c2sccc2nc(SCc2cc(=O)n3cc(Br)ccc3n2)n1Cc1ccccn1 | inconclusive: 14.1 µM [activator, partial curve, poor fit] |  |
| O=C(O)c1cccnc1Cl | inconclusive: 2.51 µM [activator, partial curve, poor fit] |  |
| CCCCNC(=O)Nc1nc2ccc(CC)cc2s1 | inconclusive: 14.1 µM [activator, single point] |  |
| CN1CCN(S(=O)(=O)c2ccc(-c3noc(C4CCN(S(C)(=O)=O)CC4)n3)cc2)CC1 | inconclusive: 0.178 µM [activator, full curve, poor fit] |  |
| COc1ccc(/C=N/Nc2nncc3ccccc23)c(OC)c1 | active: 12.6 µM |  |
| O=C(/C=C/Nc1ccccc1)c1ccccc1 | active: 11.2 µM |  |
| CCOC(=O)COc1ccc2c3c(c(=O)oc2c1C)CCC3 | inconclusive: 0.01 µM [activator, full curve, poor fit] |  |
| Cn1c(=O)[nH]c(=O)c2[nH]c(CN3CCN(C(=O)c4ccco4)CC3)nc21 |  | inactive: -10.7% |
| O=C(CCS(=O)(=O)c1ccc(Br)s1)NCc1ccccc1 | inconclusive: 3.55 µM [activator, single point] |  |
| CCCCN(C)C(=O)CSc1nc(NCc2ccc(OC)cc2)c2ccccc2n1 | inconclusive: 14.1 µM [activator, partial curve] |  |
| COc1ccc(S(=O)(=O)NC(C)C(=O)Nc2cccc([N+](=O)[O-])c2)cc1 (stereo not drawn) | inconclusive: 0.891 µM [activator, full curve, poor fit] |  |
